Data: publication PMC4441479
No constants are given. Whether binding was seen depends on the method and setting. In cells and extracts the contact can be indirect. Sequences can lack the tags named with a protein.

Chains of the proteins cited; added tags and fusions are not shown.
UniProt Q9UN81: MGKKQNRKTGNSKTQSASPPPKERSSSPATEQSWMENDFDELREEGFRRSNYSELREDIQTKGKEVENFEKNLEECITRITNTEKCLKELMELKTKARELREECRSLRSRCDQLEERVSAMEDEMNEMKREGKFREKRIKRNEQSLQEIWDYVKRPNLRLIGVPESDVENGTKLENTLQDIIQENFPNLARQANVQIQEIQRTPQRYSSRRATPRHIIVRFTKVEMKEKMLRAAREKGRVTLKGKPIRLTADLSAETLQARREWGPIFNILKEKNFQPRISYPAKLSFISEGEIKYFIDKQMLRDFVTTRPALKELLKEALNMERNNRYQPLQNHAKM

Tests used:
[1] = target: L1-RP ORF1p with a tandem FLAG-HA tag fused to its C-terminus, expressed from pc-L1-1FH (human) (UniProt Q9UN81); assay: co-IP; pc-L1-1FH (ORF1p-FLAG-HA) expressed in 293T cells with tagged test proteins or with endogenous ZAP; IP of L1 RNP complexes on α-FLAG agarose without RNase; Western blot
[2] = target: T1, FLAG-tagged MOV10 (human) (UniProt Q9HCE1); assay: co-IP; not told for this result (no figure cited); the sentence follows the co-IPs of ZAP and MOV10 of Fig 4C
T1 sequence: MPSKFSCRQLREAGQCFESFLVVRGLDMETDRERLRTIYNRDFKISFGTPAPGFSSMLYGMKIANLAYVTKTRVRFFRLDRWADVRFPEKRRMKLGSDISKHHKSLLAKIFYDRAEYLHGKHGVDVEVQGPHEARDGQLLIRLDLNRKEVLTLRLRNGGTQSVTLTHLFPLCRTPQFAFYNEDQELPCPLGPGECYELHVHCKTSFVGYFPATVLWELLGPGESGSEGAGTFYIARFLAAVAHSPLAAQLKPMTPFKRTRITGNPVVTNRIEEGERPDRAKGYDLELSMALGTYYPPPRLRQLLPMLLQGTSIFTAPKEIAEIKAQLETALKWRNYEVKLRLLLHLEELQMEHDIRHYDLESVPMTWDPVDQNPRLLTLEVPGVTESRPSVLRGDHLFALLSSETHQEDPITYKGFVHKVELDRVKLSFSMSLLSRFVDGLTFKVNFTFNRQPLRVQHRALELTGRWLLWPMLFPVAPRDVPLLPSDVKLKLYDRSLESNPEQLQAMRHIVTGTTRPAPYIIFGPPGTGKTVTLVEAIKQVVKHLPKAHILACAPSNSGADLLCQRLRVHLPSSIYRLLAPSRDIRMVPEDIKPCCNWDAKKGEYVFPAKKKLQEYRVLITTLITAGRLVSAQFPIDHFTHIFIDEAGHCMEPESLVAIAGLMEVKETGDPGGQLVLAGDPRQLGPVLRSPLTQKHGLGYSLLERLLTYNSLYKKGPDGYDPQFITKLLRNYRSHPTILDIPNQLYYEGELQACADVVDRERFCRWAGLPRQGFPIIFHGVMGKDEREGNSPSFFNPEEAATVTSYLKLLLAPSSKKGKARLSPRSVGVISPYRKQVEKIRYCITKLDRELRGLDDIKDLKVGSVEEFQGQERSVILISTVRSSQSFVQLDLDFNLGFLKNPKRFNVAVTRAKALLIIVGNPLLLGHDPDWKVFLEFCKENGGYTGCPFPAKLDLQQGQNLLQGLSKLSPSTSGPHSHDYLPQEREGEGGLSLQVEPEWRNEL

B1: rat HA-NZAP (domain or fragment, UniProt Q8K3Y6 1-254)
chain: MADPGVCCFITKILCAHGGRMTLEELLGEIRLPEAQLYELLETAGPDRFVLLETGGQAGITRSVVATTRARVCRRKYCQRPCDSLHLCKLNLLGRCHYAQSQRNLCKYSHDVLSEQNFQILKNHELSGLNQEELACLLVQSDPFFLPEICKSYKGEGRKQTCGQPQPCERLHICEHFTRGNCSYLNCLRSHNLMDRKVLTIMREHGLSPDVVQNIQDICNNKHARRNPPGTRAAHPHRRGGAHRDRSKSRDRFL
binding [1]: no binding | binding [2]: no binding
